# Data taken from ChEMBL document CHEMBL4888484, “Replenishing the malaria drug discovery pipeline: Screening and hit evaluation of the MMV Hit Generation Library 1 (HGL1) against asexual blood stage Plasmodium falciparum ,using a nano luciferase reporter read-out” (2022).
# The whole screen tested about 150,000 compounds, of which about 540 (0.36%) showed an effect of 50% or more. Some of the results follow.
# System: Plasmodium falciparum
# Assay: Primary screen in NF54 nanoGlo assay, in single point, at 2uM, 72h; a lower Z score goes with more inhibition
# Format: functional, Erythrocyte
# Details: timepoint 72 hour
SMILES,% Inhibition [%],Z score
COc1ccc2cc1Oc1cccc(c1)CO[C@H]1CN(C(=O)c3cc(=O)[nH]c4ccccc34)C[C@@H]1NC(=O)CN(C)C2,17,-2.3
CCn1nc(C(=O)O)c2c1CC[C@H](NCc1cn3ccsc3n1)C2,-15,2.77
O=C(O)Cn1nc(C2CCCC2)nc1-c1cccc(Cn2cccn2)c1,-12,2.32
Cc1nnc([C@H]2CCN(Cc3ccco3)C2)o1,3,-0.42
O=C(Cn1cccn1)N1CC2CC1CO2 (centres undefined),-17,2.18
CC(C)=CCN1CC2(CCN(C(=O)c3ccc(C#N)cc3)CC2)CC1=O,-3,0.31
CC[C@@H](CNC(=O)c1cccnc1)N1CCCC1,-14,1.45
Cc1nccn1CC(=O)N(C)C1CCCCC1,-1,0.11
Cc1nccn1-c1cc(N2CCC(C(=O)Nc3ccc(OC(F)(F)F)cc3)CC2)ncn1,-11,1.71
CCS(=O)(=O)N1CCC[C@@](F)(C(=O)NCc2ccncc2)C1,-21,1.81
CC1CN(C(=O)c2ccc(Cl)c(C#N)n2)C(C)CN1C (centres undefined),-7,0.85
c1ccc(-c2nnc(CN3CCn4ccnc4C3)o2)cc1,4,-0.77
Cc1cc(C)c2c(CC(=O)N3CC[C@H]4[C@H](C3)OCc3cnnn34)coc2c1C,-3,0.42
COC(=O)[C@H](C)NC(=O)c1cccc(C)c1,-12,1.17
O=C(C1CCCCCC1)N1CCN(Cc2ccccn2)[C@@H]2CS(=O)(=O)C[C@@H]21,-7,0.81
Cc1cccc(NC(=O)C[C@H](C)Cc2nnc3c(=O)n(-c4cccc(F)c4)ccn23)c1,4,-0.63
O=C(CCc1ccccc1Br)N[C@H]1CCN(C2CC2)C1,1,-0.17
Cc1cnccc1NC(=O)C1=Cc2ccccc2OC1,-16,2.44
O=C1CC[C@H](N2CCN(Cc3ccc4c(c3)OCO4)CC2)CCN1Cc1ccc(F)cc1F,-13,1.72
COCCCN1CC2(CCN(C(=O)c3c(F)cccc3OC)CC2)CC1=O,-2,0.39
O=C(c1cc(S(=O)(=O)N2CCOCC2)cs1)N1CCC(Cc2ccccc2)CC1,-15,1.77

SMILES,% Inhibition [%],Z score
COc1cc(C(=O)NC[C@H](C)O)cc(OC)c1OC,31,-3.94
O=C(NCC(CO)C1CCCCC1)[C@@H]1C[C@H]2CC[C@@H]1O2 (some centres undefined),4,-0.55
O=C(c1ccco1)N1CCC(c2nnn[nH]2)CC1,-8,1.21
CN1CCN([C@@H]2COC3(C2)CN(C(=O)c2ccc(OC(F)(F)F)cc2)C3)CC1,-10,1.6
Cc1cnc(C(C)(C)NCC(=O)N(C)C)s1,29,-3.95
N#Cc1ccc(CN2CCC(N3C(=O)[C@H]4CCCN4C3=O)C2=O)cc1 (some centres undefined),-5,0.42
C[C@H]1CNC[C@@H]1Cc1nc(-c2ccc(N3CCCC3)cn2)no1,1,-0.1
CCNC(=O)N1CCC[C@H](Oc2nc(C(C)C)nc3c2CCOCC3)C1,-4,0.58
Nc1ccccc1-c1nc(C2CC2)no1,15,-1.98
COCCn1nc([C@H]2CCCN(C(=O)c3ccc(C(F)(F)F)cc3)C2)n(C2CC2)c1=O,-6,0.68
Cc1cc(=O)n(CC(=O)N2CCC(c3nccn3C)CC2)c2ccccc12,-2,0.33
c1ccc(OCCNc2ccc3nnnn3n2)cc1,-4,0.36
COC1(c2ccccc2)CCN(C(=O)[C@H]2CCCN(C(N)=O)C2)CC1,-8,1.57
O=C(NC(CO)C(O)c1ccc(Cl)cc1)C1(C(F)F)CCCC1 (centres undefined),4,-0.81
CCS(=O)(=O)NCCNCc1ccc(C#Cc2cn[nH]c2)cc1,-12,1.55
COc1ccc([C@@H](NC(=O)CCCN(C)S(=O)(=O)c2ccc(C(C)=O)cc2)c2nccn2C)cc1,8,-0.67
CN(C)S(=O)(=O)CC(=O)NCC(C)(C)Cc1cccc(Cl)c1,0,0.04
COc1ccc(-c2ccc3c(c2)OC[C@@H](N2CCCC2)[C@@H]3O)c2ccc(C)nc12,-10,1.47
Cc1ccccc1C1C2C(=O)N(c3cccc4ccccc34)C(=O)C2ON1c1ccccc1 (centres undefined),-3,0.36
CC(NC(=O)CNC(C)(CO)C1CCCCC1)c1ccco1 (centres undefined),-8,0.8
CS(=O)(=O)c1ccccc1N1CC2CCCC2C1 (centres undefined),-13,1.3
